The values that follow come from the RNAGym collection of RNA variant scans (doi:10.7554/elife.90254).

The labels stand for the following.
B1: LINE1-mini (parent)
chain: GGCAGAGCUCAACACAGCGUGGCAAAGUGGCUGUGGCUAGACUGCC

Read counts are not given, so values of variants with three or more changes are uncertain.

This data set covers variants of B1. As to the kind of experiment: self-cleavage, relative activity (ratio to wild type); higher = more cleavage; in vitro, sequencing; the parent is a self-cleaving ribozyme.
On to G5A G7C G35U, for which the self-cleavage is 0.08.
Then G5A G33C C42G, with 0.03; and G5A G17A G30U, with 0.08; and G5A G30A G36A A39C, with 0.53.
With G5A C31U C37U, the self-cleavage was 0.13.
As for G5A G22U C42U, the self-cleavage worked out at 0.64.
Then G5A G7C A12G A25C A39C, with 0.07; and G5A C18U C37G U43A, with 0.02.
With G5A G21U G22U U28G C46A, the self-cleavage came out at 0.1.
Turning to G5A G7A G21A, the self-cleavage came to 0.89.
As for G5A C15G C46U, the self-cleavage was determined as 0.07.
For the variant G5A G19U G36A, the self-cleavage stood at 0.22.
As to G5A C15A G22C U38C U43C C46U, the self-cleavage worked out at 0.
With G5A G7U U38C C42U, the self-cleavage is 0.12.
To G5A G7U G17A belongs 0.13; to G5A G7C G30A, 0.48.
Regarding G5A G33A C37G C42G, the self-cleavage is 0.02.
Take G5A G17A U34G: the self-cleavage came out at 0.06.
To G5A C15U C23G A25G belongs 0.02; to G5A G7U C18U G29A, 0.09; to G5A G22A C31A U38A, 0.03.
Take G5A C23A G33U: the self-cleavage is 0.09.
In the case of G5A C15U G33A, the self-cleavage came out at 0.25.
Regarding G5A G17U A41G C45A, the self-cleavage is 0.01.
For G5A C23U G27A U28G C45U, the self-cleavage came out at 0.05.
As for G5A G22U G40C, the self-cleavage was determined as 0.08.
As to G5A G19U G33A G40C U43G C45G, the self-cleavage was determined as 0.01.
Regarding G5A C45G C46A, the self-cleavage turned out to be 0.16.
To G5A C37G A39U belongs 0.05; to G5A G22A C23G U32C, 0.03; to G5A C23G C46A, 0.35.
In the case of G5A C18U G35U A41C, the self-cleavage is 0.02.
To G5A C18U G44U C45U belongs 0.03; to G5A C23G A25G G35C U38G, 0.
As to G5A C18G G22U C23U G33U U34C A41U, the self-cleavage turned out to be 1.
Take G5A G19A G22U: the self-cleavage came to 0.03.
As for G5A G22U A24U C31G, the self-cleavage amounted to 0.02.
Regarding G5A G19A G21C, the self-cleavage is 0.03.
Then G5A G17U G30C, with 0.02; and G5A C15A G27C, with 0.01; and G5A G30C C42A C46A, with 0.03.
To G5A G22C G36A U43G belongs 0.04; to G5A G7A C23G G44U, 0.05.
Consider G5A G17C U38A, for which the self-cleavage stood at 0.12.
Regarding G5A G7A C13A U20A G22A, the self-cleavage is 0.83.
For the variant G5A C15U A26C G30A U34G, the self-cleavage came to 0.04.
For the variant G5A G36A G40A U43C, the self-cleavage was found to be 0.06.
Regarding G5A C31G U38A U43G, the self-cleavage was 0.02.
Then G5A G29C G40C, with 0.
Take G5A C42A U43A: the self-cleavage is 0.05.
With G5A C15G G27C, the self-cleavage stood at 0.
For G5A G19C U34C, the self-cleavage was 0.07.
Then G5A G35U G44U C46A, with 0.07.
Regarding G5A C18U G19U G27C, the self-cleavage is 0.11.
Then G5A C18G G33A, with 0.12; and G5A G17C C23U, with 0.11; and G5A G22C A24C G33C, with 0.05.
Regarding G5A G17C A39U, the self-cleavage was found to be 0.12.
On to G5A C15A G22C G27A G36U, for which the self-cleavage stood at 0.04.
As for G5A C18U G22A, the self-cleavage was found to be 0.2.
As to G5A C15G G21U G22U C31U, the self-cleavage is 0.02.
To G5A C31U G44A belongs 0.04; to G5A G7U C10U, 0.09.
To G5A G7U C10G belongs 0.02; to G5A G19A A24U G33U, 0.04; to G5A C31U G35C, 0.16.
As to G5A G7A G30U, the self-cleavage turned out to be 0.27.
In the case of G5A G29U U43A, the self-cleavage amounted to 0.01.
As for G5A G7U A14G G22U A26U G40U, the self-cleavage came out at 0.3.
In the case of G5A G22C A26G U32A G33C C45U, the self-cleavage was determined as 0.02.
To G5A C31U C37G C46A belongs 0.03; to G5A G40C A41C, 0.04.
Then G5A G30A G35A C45A, with 0.03.
On to G5A G7A C8U A11G A14U G19U U28G A39G G40C, for which the self-cleavage is 0.02.
Turning to G5A G21A G27C U38A, the self-cleavage worked out at 0.13.
With G5A G27C U38A, the self-cleavage came out at 0.13.
To G5A G27C C45A belongs 0.01; to G5A G22C C23A A26C U38C A39U C46G, 0.03.
To G5A G21U A26U belongs 0.11.
As to G5A C18G A26U, the self-cleavage worked out at 0.05.
Regarding G5A G21U C46U, the self-cleavage turned out to be 0.71.
In the case of G5A G29A C31U, the self-cleavage was determined as 0.07.
On to G5A C18U G36A C46G, for which the self-cleavage was 0.05.
As to G5A C18U G22A C37U, the self-cleavage came out at 0.08.
Regarding G5A G17U C31G U32A A39G, the self-cleavage came to 0.02.
With G5A G21A U32G G36A, the self-cleavage amounted to 0.03.
In the case of G5A G29U G35C, the self-cleavage worked out at 0.09.
To G5A C18G G35A G40C G44U belongs 0; to G5A C37A U38A, 0.05; to G5A G29A C45U, 0.02.
Turning to G5A C31A C45U, the self-cleavage was 0.03.
Turning to G5A C31A C45A, the self-cleavage stood at 0.04.
Consider G5A G7C G29U G36U, for which the self-cleavage was determined as 0.03.
To G5A G7C A24U belongs 0.07.
Turning to G5A G7C A12C C13A U38A, the self-cleavage stood at 0.03.
Regarding G5A C23A C46G, the self-cleavage stood at 0.39.
Then G5A C37U C42U U43A, with 0.02; and G5A C15U A24U G27C G29C, with 0.02.
To G5A C37G A41U C42G G44A belongs 0; to G5A C18A C37U, 0.08; to G5A G7A C23G, 0.26.
G5A G7C G19U A26U: the self-cleavage amounted to 0.13.
For the variant G5A G7C G29U A41U C45A, the self-cleavage is 0.07.
For G5A G40C G44C, the self-cleavage came out at 0.05.
To G5A G7U G33A belongs 0.1; to G5A G22A C45U, 0.39.
Take G5A G30U U43C G44C: the self-cleavage was determined as 0.02.
In the case of G5A G7U G21A G27U, the self-cleavage turned out to be 0.09.
Take G5A C15U U20G: the self-cleavage worked out at 0.1.
For G5A G17U G27A, the self-cleavage stood at 0.05.
G5A G17U G27C: the self-cleavage was found to be 0.06.
In the case of G5A G27C U32C A41U C45U, the self-cleavage turned out to be 0.02.
G5A G19A A24G: the self-cleavage stood at 0.31.
As for G5A G7U A11G A16C U43G, the self-cleavage was found to be 0.
In the case of G5A G21U G44C, the self-cleavage amounted to 0.07.
Then G5A G19U G29U G35U, with 0; and G5A G22U C23A, with 0.05.
To G5A C15U C23G belongs 0.13.
In the case of G5A C18A G29C U32A G33U, the self-cleavage was 0.02.
Consider G5A G33C C37G U38A, for which the self-cleavage stood at 0.06.
Then G5A C37U G40A, with 0.12; and G5A G19U G21A A25U, with 0.41; and G5A G7U C13A C31G G33A, with 0.03.
Then G5A G36A C42A, with 0.14; and G5A G35U G36U, with 0.27; and G5A C23U C37U G40U G44A, with 0.03.
For G5A G30U U34A C37G G44C, the self-cleavage was found to be 0.01.
As for G5A G19U G21U, the self-cleavage amounted to 0.01.
To G5A C15G C31G G35U belongs 0.07.
Then G5A G7A A11C C13G C15U G33U C37U U38C, with 0.02; and G5A G7C A26G, with 0.11; and G5A G29U G33A, with 0.11.
Turning to G5A C23A A25C C31G, the self-cleavage was found to be 0.04.
As to G5A G21U G29U C42U, the self-cleavage was determined as 0.89.
For the variant G5A G7U C13U G17C G22A A41G, the self-cleavage is 0.44.
To G5A G27U U28C C37A G40U belongs 0.03.
As for G5A G36A A39G, the self-cleavage came to 0.01.
As to G5A G21U A25U C45A C46U, the self-cleavage came out at 0.22.
For the variant G5A G30A G44U C45U, the self-cleavage was 0.07.
G5A G7C A12U C13A G35A: the self-cleavage turned out to be 0.4.
Take G5A G7U C10U A14U G40A: the self-cleavage was found to be 0.05.
As to G5A G33U G40A, the self-cleavage amounted to 0.09.
Consider G5A G7A C18A C23U U28G U38G A39G, for which the self-cleavage amounted to 0.1.
As for G5A G29U G35U C37A A41G, the self-cleavage is 0.22.
G5A C18A A24U G29A G30A C37A U43C C46U: the self-cleavage worked out at 0.02.
In the case of G5A C37A A39G, the self-cleavage is 0.06.
Consider G5A G7A U9C, for which the self-cleavage is 0.05.
As for G5A C37G C45U C46G, the self-cleavage is 0.01.
Take G5A C18A G27A A39G: the self-cleavage was found to be 0.03.
To G5A G29U C31A belongs 0.05; to G5A C18U U34G, 0.01; to G5A G29U G36U, 0.07.
G5A G7A A12C A25U G30A G44C: the self-cleavage was found to be 0.04.
In the case of G5A G19A G36U G40U, the self-cleavage was 0.03.
As for G5A G7C U9A A14G C15A, the self-cleavage stood at 0.22.
On to G5A G17C A26C C42U U43A, for which the self-cleavage was found to be 0.02.
Then G5A G7C A12C G21U, with 0.37.
For the variant G5A G17U G19U G35U U43A, the self-cleavage is 0.03.
For the variant G5A C18G U20C G36C, the self-cleavage was found to be 0.03.
With G5A C31G G44U C46U, the self-cleavage was 0.
G5A C15G G17C C31G U38G: the self-cleavage was 0.03.
Consider G5A G17A G29C, for which the self-cleavage turned out to be 0.35.
Take G5A G21A A41C C42A: the self-cleavage came out at 0.05.
Then G5A G17U A26G, with 0.06; and G5A G19C G40U, with 0.07; and G5A G7A U28C U34C, with 0.11.
Then G5A C37G C42G, with 0.01.
